According to PMC4336329 (PLoS ONE, 2015):
Hit rate of the full screen: of about 310,000 compounds, about 2,200 (0.71%) showed an effect of 50% or more. The effect is printed as a negative number. The list shows a part of the results.

molecular target: human ether-à-go-go-related gene (hERG) potassium channel (human, UniProt Q12809); experiment: primary screen, population patch clamp on CHO cells stably expressing hERG
Sequence (Q12809 whole entry, looked up): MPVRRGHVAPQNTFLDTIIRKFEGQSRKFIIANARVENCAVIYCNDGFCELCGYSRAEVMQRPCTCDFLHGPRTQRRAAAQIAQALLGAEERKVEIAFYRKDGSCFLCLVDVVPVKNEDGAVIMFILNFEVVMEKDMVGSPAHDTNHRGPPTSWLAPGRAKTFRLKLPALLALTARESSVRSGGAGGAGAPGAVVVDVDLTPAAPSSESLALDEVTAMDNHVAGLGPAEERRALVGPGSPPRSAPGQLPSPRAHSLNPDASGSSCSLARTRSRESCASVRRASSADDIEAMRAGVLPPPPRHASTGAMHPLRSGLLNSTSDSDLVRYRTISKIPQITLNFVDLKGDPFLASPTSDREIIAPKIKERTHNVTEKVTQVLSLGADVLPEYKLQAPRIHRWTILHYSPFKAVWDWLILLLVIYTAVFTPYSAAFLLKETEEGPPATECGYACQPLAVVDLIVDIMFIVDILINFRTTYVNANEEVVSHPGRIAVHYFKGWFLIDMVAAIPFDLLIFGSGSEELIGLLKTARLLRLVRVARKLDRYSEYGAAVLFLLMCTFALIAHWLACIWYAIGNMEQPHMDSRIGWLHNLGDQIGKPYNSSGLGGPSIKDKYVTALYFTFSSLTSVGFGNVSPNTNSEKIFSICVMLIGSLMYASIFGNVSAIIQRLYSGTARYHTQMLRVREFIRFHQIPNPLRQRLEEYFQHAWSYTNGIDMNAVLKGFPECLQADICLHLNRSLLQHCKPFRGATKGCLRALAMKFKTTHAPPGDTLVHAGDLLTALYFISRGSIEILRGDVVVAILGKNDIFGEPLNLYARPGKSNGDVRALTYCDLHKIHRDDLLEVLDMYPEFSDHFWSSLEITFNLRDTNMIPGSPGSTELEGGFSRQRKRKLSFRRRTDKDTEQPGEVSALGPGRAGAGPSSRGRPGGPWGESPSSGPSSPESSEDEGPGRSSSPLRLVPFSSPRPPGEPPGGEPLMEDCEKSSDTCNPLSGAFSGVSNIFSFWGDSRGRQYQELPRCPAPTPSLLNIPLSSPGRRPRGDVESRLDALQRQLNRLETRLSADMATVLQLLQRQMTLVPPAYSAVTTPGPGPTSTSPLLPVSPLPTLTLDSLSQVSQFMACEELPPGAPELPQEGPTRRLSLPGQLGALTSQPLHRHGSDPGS

Row | SMILES | hERG current change (%, negative = inhibition) at 1uM [%]
1 | Cc1[nH]c(=O)[nH]c(=O)c1/C=C/C(=O)O | 4.57
2 | Cc1ccccc1C(=O)N1CCC(C(=O)Nc2ccc3c(c2)OCCO3)CC1 | 12
3 | Cc1cnc(SCc2ccc(Cl)cc2Cl)[nH]c1=O | 12.7
4 | O=C(Nc1cccc(O)c1)c1cc(-c2ccccc2Cl)on1 | 18
5 | CS(=O)(=O)N1CCCC(C(=O)c2cccc(Cl)c2)C1 (centres unmarked) | 22.1
6 | COc1cc2c(cc1OC)CN(CC(=O)Nc1cccc(C)c1)CC2 | 10.6
7 | COc1ccc(C(=O)C2CCCN(Cc3cc(C)c(O)c(C)c3)C2)c(OC)c1 (centres unmarked) | -0.499
8 | NCCNC(=O)Cc1cccc(NC(=O)Cc2ccc(Nc3ncnc4c3ncn4[C@@H]3O[C@H](CO)[C@@H](O)[C@H]3O)cc2)c1 | 14.4
9 | Cc1ccc(S(=O)(=O)Nc2ccc(N3CCOCC3)cc2)cc1C | 9.57
10 | O=C(Nc1cccc(-c2nnc(-c3ccco3)o2)c1)c1ccccc1 | -5.05
11 | O=C(Nc1cc2c3c(c1)CC(=O)N3CCC2)c1ccc(F)cc1 | 3.93
12 | COc1ccc(C(C)(C)C)cc1S(=O)(=O)n1ccnc1C | 13.8
13 | O=S(=O)(Cc1ccccc1)N1CCCC1 | 10.9
14 | CC1=C(C(=O)N2CCOCC2)C(c2ccc(OC(F)F)cc2)NC(=S)N1c1ccccc1 (centres unmarked) | 3.86
15 | CNC(=O)c1[nH]cnc1C(=O)Nc1cccc(Cl)c1 | -6.99
16 | CCOC(=O)c1c(C)n(C)c2ccc(OC)c(NC(=O)CN3CCSCC3)c12 | 12.8
17 | CCn1c(C(C)NC(=O)c2ccc(OC)c(OC)c2)nc2ccccc21 (centres unmarked) | -10.2
18 | COc1ccc(CNC(=O)CSc2nc(C)cs2)cc1 | 8.12
19 | Cc1cc(C)cc(NC(=S)NC2CC3CCCC(C2)N3Cc2cccs2)c1 (centres unmarked) | -2.45

Row | SMILES | hERG current change (%, negative = inhibition) at 1uM [%]
20 | COc1cc(F)c(C2=CC(=O)C[C@H](c3ccc(Cl)cc3)C2)cc1F | 14.3
21 | OC1(C(F)(F)F)CC(O)(C(F)(F)F)n2nc(-c3ccccc3)cc2N1 (centres unmarked) | 11
22 | CCc1ccc(OC)c(S(=O)(=O)Nc2ccc(Cc3ccncc3)cc2)c1 | 5.44
23 | CCN1CCN(CC(O)COc2ccc3c(c2)CCC3)CC1.Cl (centres unmarked) | 8.4
24 | COc1ccccc1-c1nnc(NC(=O)c2ccc(S(=O)(=O)N(C)CC3CCCO3)cc2)o1 (centres unmarked) | 5.69
25 | CN(C(=O)c1ccc(Cl)nc1)C1(c2ccccc2Cl)CCCCC1=O (centres unmarked) | 5.36
26 | CCNC(=O)c1ccc(N(C)S(=O)(=O)c2cccs2)cc1 | 13.7
27 | COc1ccc([C@H]2CC(=O)C=C(c3cccc(OC)c3)C2)cc1 | -17.5
28 | CCOC(=O)C1=CC[C@@H](c2cc3ccc(OC)cc3n2C)N(S(=O)(=O)c2ccc(C)cc2)[C@H]1C(=O)OCC | 7.66
29 | C=CCNC(=O)CCC(=O)NNc1nc2ccccc2c2nc(-c3ccccc3)nn12 | 7.9
30 | CCOC(=O)C1CCCN(C/C=C/c2ccccc2[N+](=O)[O-])C1 (centres unmarked) | -42.6
31 | O=C(COC(=O)c1cc2ccccc2cc1O)c1ccccc1 | 8.24
32 | O=C(/C=C\Nc1ccccc1Br)c1ccc2c(c1)OCO2 | 13.7
33 | O=C(/C=C/c1ccco1)N(Cc1ccc(F)cc1)C1CCS(=O)(=O)C1 (centres unmarked) | -3.56
34 | COc1ccccc1OCc1nnc(SCC(=O)N2CCCC2)o1 | 15.8
35 | Cc1cccc(N2CCN(C(=O)c3cc4c(=O)[nH]c5ccccc5c4n3C)CC2)c1C | 11.2
36 | Cc1noc(C)c1C(=O)OCC(=O)NCc1ccc(Cl)cc1 | 8.49
37 | Cc1csc(C(C)N(C)C(=O)CCc2nnc(CCc3ccccc3)o2)n1 (centres unmarked) | -1.78
38 | O=C(CN(CC1CCCO1)C(=O)CNS(=O)(=O)c1ccccc1)NCc1ccccc1 (centres unmarked) | 1.76

Row | SMILES | hERG current change (%, negative = inhibition) at 1uM [%]
39 | CS(=O)(=O)NN1C(=O)c2ccccc2NC1c1cc2ccccc2nc1Cl (centres unmarked) | -8.61
40 | COCCn1nnnc1C(c1cccc(OC)c1OC)N1CCN(C2CCCCC2)CC1.Cl (centres unmarked) | 5.77
41 | COc1ccc(N=C(C)c2c(O)n(C3CCCCC3)c(=O)[nH]c2=O)c(OC)c1 | 10.5
42 | COCCn1c(SCC(=O)Nc2ccc3c(c2)OCCO3)nnc1C(C)C | 9.63
43 | Cn1c(=O)c2c(ncn2CCOc2cccc(Br)c2)n(C)c1=O | -0.237
44 | CCOC(=O)NC(=O)/C(C#N)=N\Nc1ccc(Cl)cc1 | 14.5
45 | O=C(O)C1CC=CCC1C(=O)Nc1ccc2c(c1)CCC2 (centres unmarked) | 6.25
46 | O=C(O)C1=C[C@H](c2ccccc2)C[C@H](OCc2ccc(CO)cc2)O1 | 13.1
47 | COc1cc(S(=O)(=O)Nc2cccc(C)c2)ccc1NC(=O)c1ccncc1 | 22.6
48 | COc1cc(OC)c(C2C(C(=O)Nc3ccc(C)cc3C)=C(C)Nc3ncnn32)cc1OC (centres unmarked) | 15.1
49 | Cc1ccc(-c2nnn(CC(=O)N(c3ccc(F)cc3)C(C(=O)NC(C)(C)C)c3ccco3)n2)o1 (centres unmarked) | 7.02
50 | COc1cc(CN2CCC(Cc3ccccc3)CC2)cc([N+](=O)[O-])c1O | 8.72
51 | COc1cc(/C=C(\C#N)c2nn(CCO)c(N)c2C#N)cc(OC)c1OC | 20.2
52 | Cc1cc(=S)n(-c2ccccc2)n1C | 10.3
53 | CSc1nc2ccc3nc(NC(=O)c4ccccc4)sc3c2s1 | 12.7
54 | CN(C)Cc1ccccc1COc1ccccc1.O=C(O)/C=C\C(=O)O | 4.28
55 | CC(=O)NCc1ccc(C(=O)CCl)cc1 | 7.82
56 | CC(=O)Oc1cccc(N2C(=O)C3CC=CCC3C2=O)c1 (centres unmarked) | 12
